# Literature values as cited in PMC11006913.
# Numbering of substitutions follows the chain as printed. This is one part of the list.
# Tests used:
# Details in all cases: PBM; conditions not shown; double strand, one strand shown; scale: upbm affinity estimate (log intensity, higher = more binding, comparable within an allelic series)
# [1] = molecular target: ISX (Homo sapiens) (UniProt Q2M1V0)
# [2] = molecular target: ISX R83Q (Homo sapiens) (UniProt Q2M1V0)
# [3] = molecular target: PITX2 L100Q (Homo sapiens) (UniProt Q99697)
# [4] = molecular target: PITX2 R108H (Homo sapiens) (UniProt Q99697)
# [5] = molecular target: PITX2 R130W (Homo sapiens) (UniProt Q99697)
# [6] = molecular target: PITX2 T114P (Homo sapiens) (UniProt Q99697)
# [7] = molecular target: T1, PBX4 (Homo sapiens) (UniProt Q9BYU1)
# T1 sequence: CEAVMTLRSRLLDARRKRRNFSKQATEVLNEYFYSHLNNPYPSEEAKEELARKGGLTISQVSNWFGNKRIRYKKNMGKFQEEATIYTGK
# [8] = molecular target: T2, PBX4 R215Q (Homo sapiens) (UniProt Q9BYU1)
# T2 sequence: T1 sequence with R19Q
# [9] = molecular target: PROP1 R112Q (Homo sapiens) (UniProt O75360)
# [10] = molecular target: PROP1 R99Q (Homo sapiens) (UniProt O75360)
# [11] = molecular target: NKX2-5 K183E (Homo sapiens) (UniProt P52952)
# [12] = molecular target: NKX2-5 R161P (Homo sapiens) (UniProt P52952)
# [13] = molecular target: NKX2-5 R190C (Homo sapiens) (UniProt P52952)
sequence,measurement,setting,value
CCGCACCC [8-mer CCGCACCC],binding signal,[1],9.82
same,binding signal,[2],9.79
GGGGAACC [8-mer GGGGAACC],binding signal,[1],9.68
same,binding signal,[2],9.8
GAATGAAC [8-mer GAATGAAC],binding signal,[1],10.5
same,binding signal,[2],10.3
CTGGGGCA [8-mer CTGGGGCA],binding signal,[1],9.6
same,binding signal,[2],9.71
same,binding signal,[3],8.07
same,binding signal,[4],8.11
same,binding signal,[5],8.05
same,binding signal,[6],8.14
GACGCGGC [8-mer GACGCGGC],binding signal,[1],9.75
same,binding signal,[2],9.77
CCTGGGGC [8-mer CCTGGGGC],binding signal,[1],9.39
same,binding signal,[2],9.62
same,binding signal,[3],8.2
same,binding signal,[4],7.84
same,binding signal,[5],7.69
same,binding signal,[6],7.82
AGCTGCCG [8-mer AGCTGCCG],binding signal,[1],9.77
same,binding signal,[2],9.82
CCCTGGTC [8-mer CCCTGGTC],binding signal,[1],9.72
same,binding signal,[2],9.75
same,binding signal,[7],9.63
same,binding signal,[8],9.76
GAAGGGGA [8-mer GAAGGGGA],binding signal,[1],9.77
same,binding signal,[2],9.79
GCCCCGGC [8-mer GCCCCGGC],binding signal,[1],9.49
same,binding signal,[2],9.62
CCGGGCCA [8-mer CCGGGCCA],binding signal,[1],9.65
same,binding signal,[2],9.71
same,binding signal,[9],10.9
same,binding signal,[10],10.9
CGAGTGTC [8-mer CGAGTGTC],binding signal,[11],10.5
GGCCGCCC [8-mer GGCCGCCC],binding signal,[1],9.81
same,binding signal,[2],9.65
same,binding signal,[3],7.92
same,binding signal,[4],7.86
same,binding signal,[5],7.69
same,binding signal,[6],7.89
CCTCTTAA [8-mer CCTCTTAA],binding signal,[1],11.8
same,binding signal,[11],11.7
same,binding signal,[12],12.1
same,binding signal,[13],10.8
CCTCTTAG [8-mer CCTCTTAG],binding signal,[11],11.5
AGCTGGCG [8-mer AGCTGGCG],binding signal,[1],9.64
same,binding signal,[2],9.74
same,binding signal,[3],8.33
same,binding signal,[4],8.03
same,binding signal,[5],7.91
same,binding signal,[6],8.08
CCTAATCC [8-mer CCTAATCC],binding signal,[1],11.3
same,binding signal,[3],11.4
same,binding signal,[4],9.52
same,binding signal,[5],8.49
same,binding signal,[6],9.96
GGCCCCCA [8-mer GGCCCCCA],binding signal,[1],9.7
same,binding signal,[2],9.79
same,binding signal,[9],10.8
same,binding signal,[10],10.8
AAGTGCGC [8-mer AAGTGCGC],binding signal,[11],10.6
AAAGTGGT [8-mer AAAGTGGT],binding signal,[11],11.6
ATAATTTG [8-mer ATAATTTG],binding signal,[2],12.2
GAGAGTGC [8-mer GAGAGTGC],binding signal,[11],10.7
AACTTATT [8-mer AACTTATT],binding signal,[1],12.3
same,binding signal,[9],11.9
CCGCGCGG [8-mer CCGCGCGG],binding signal,[1],9.79
same,binding signal,[2],9.82
same,binding signal,[9],10.9
same,binding signal,[10],11.2
ATTACAAT [8-mer ATTACAAT],binding signal,[1],12.4
same,binding signal,[9],12.1
AATTAAAG [8-mer AATTAAAG],binding signal,[2],13.4
CGCACTCA [8-mer CGCACTCA],binding signal,[11],10.7
CCTCTTCA [8-mer CCTCTTCA],binding signal,[11],11.6
AAGGACTT [8-mer AAGGACTT],binding signal,[11],10.6
CCCCCGGG [8-mer CCCCCGGG],binding signal,[1],9.55
same,binding signal,[2],9.58
same,binding signal,[3],8.29
same,binding signal,[4],7.88
same,binding signal,[5],7.57
same,binding signal,[6],7.92
AATTGACA [8-mer AATTGACA],binding signal,[2],11.9
GCACTCCA [8-mer GCACTCCA],binding signal,[11],10.6
CCGGGCCC [8-mer CCGGGCCC],binding signal,[1],9.63
same,binding signal,[2],9.65
same,binding signal,[3],8.06
same,binding signal,[4],7.81
same,binding signal,[5],7.71
same,binding signal,[6],7.91
same,binding signal,[9],10.7
same,binding signal,[10],10.8
AAGTGAGC [8-mer AAGTGAGC],binding signal,[11],10.7
GAGCACTC [8-mer GAGCACTC],binding signal,[11],10.7
AATTAAAA [8-mer AATTAAAA],binding signal,[2],13.2
CGGTACTC [8-mer CGGTACTC],binding signal,[11],10.4
AGGACCCG [8-mer AGGACCCG],binding signal,[1],9.73
same,binding signal,[2],9.8
same,binding signal,[3],8.43
same,binding signal,[4],8.08
same,binding signal,[5],8.01
same,binding signal,[6],8.14
GGTACTCA [8-mer GGTACTCA],binding signal,[11],10.7
GCGGGCCC [8-mer GCGGGCCC],binding signal,[1],9.69
same,binding signal,[2],9.6
same,binding signal,[9],10.7
same,binding signal,[10],10.9
CAAGGGTC [8-mer CAAGGGTC],binding signal,[11],10.6
CTAAGGAC [8-mer CTAAGGAC],binding signal,[11],10.6
GAAGGACC [8-mer GAAGGACC],binding signal,[1],9.65
same,binding signal,[2],9.83
same,binding signal,[9],10.8
same,binding signal,[10],10.9
CAGGGTGC [8-mer CAGGGTGC],binding signal,[1],9.7
same,binding signal,[2],9.8
same,binding signal,[3],8.31
same,binding signal,[4],8.07
same,binding signal,[5],7.96
same,binding signal,[6],8.12
ACGAGTGC [8-mer ACGAGTGC],binding signal,[11],10.6
CCCCTTGA [8-mer CCCCTTGA],binding signal,[11],11.7
CCGGGGGC [8-mer CCGGGGGC],binding signal,[1],9.61
same,binding signal,[2],9.61
same,binding signal,[3],8.01
same,binding signal,[4],7.84
same,binding signal,[5],7.42
same,binding signal,[6],7.8
AAGTGGGA [8-mer AAGTGGGA],binding signal,[11],11.6
CAAAGTGC [8-mer CAAAGTGC],binding signal,[11],10.7
GTACTTCA [8-mer GTACTTCA],binding signal,[11],11.1
same,binding signal,[12],12.5
same,binding signal,[13],10.8
AGGGCACT [8-mer AGGGCACT],binding signal,[11],10.5
ACAAGTAC [8-mer ACAAGTAC],binding signal,[11],11
same,binding signal,[12],12.5
same,binding signal,[13],10.9
CAGGGCCC [8-mer CAGGGCCC],binding signal,[11],10
same,binding signal,[12],10.3
same,binding signal,[13],9.97
GGCACTTA [8-mer GGCACTTA],binding signal,[11],11.6
same,binding signal,[12],13.1
same,binding signal,[13],10.6
